# Source: the supplement of paper PMC8728848
# The other results are listed elsewhere or left out.
# B1: CVN (Nostoc ellipsosporum), P81180 (protein)
# chain: LGKFSQTCYNSAIQGSVLTSTCERTNGGYNTSSIDLNSVIENVDGSLKWQPSNFIETCRNTQLAGSSELAAECKTRAQQFVSTKINLDDHIANIDGTLKYE
# Tests used:
# Experiment in all cases: glycan array binding signal (z-score within array); higher = stronger binding
# Conditions in all cases: glycan notation: IUPAC condensed, linker removed
# [1] = molecular target: Neu5Ac9Ac(a2-3)Gal(b1-4)GlcNAc
# Procedure, shortened: (§1)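 The binding signal is a Z-score computed within each array. Data were drawn from 3228 arrays in the Consortium for Functional Glycomics database, restricted to those with a known protein sequence. Scores were averaged over arrays of the same protein sequence at different concentrations or buffers, and over linkers, and negative values can be taken as non-binding.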
# [2] = molecular target: Neu5Ac9Ac(a2-6)Gal(b1-4)GlcNAc
# Procedure, shortened: as §1
# [3] = molecular target: Neu5Gc(a2-3)Gal(b1-3)GlcNAc
# Procedure, shortened: as §1
# [4] = molecular target: Neu5Gc(a2-3)Gal(b1-3)[Fuc(a1-4)]GlcNAc
# Procedure, shortened: as §1
# [5] = molecular target: Neu5Gc(a2-3)Gal(b1-4)Glc
# Procedure, shortened: as §1
# [6] = molecular target: Neu5Gc(a2-3)Gal(b1-4)GlcNAc
# Procedure, shortened: as §1
# [7] = molecular target: Neu5Gc(a2-3)Gal(b1-4)[Fuc(a1-3)]GlcNAc
# Procedure, shortened: as §1
# [8] = molecular target: Neu5Gc(a2-6)Gal(b1-4)GlcNAc
# Procedure, shortened: as §1
# [9] = molecular target: Neu5Gc(a2-6)GalNAc
# Procedure, shortened: as §1
# [10] = molecular target: Neu5Gc(b2-6)Gal(b1-4)GlcNAc
# Procedure, shortened: as §1
binder,measurement,setting,value
B1,glycan array binding signal (z-score),[1],-0.302
same,glycan array binding signal (z-score),[2],-0.301
same,glycan array binding signal (z-score),[3],-0.298
same,glycan array binding signal (z-score),[4],-0.296
same,glycan array binding signal (z-score),[5],-0.298
same,glycan array binding signal (z-score),[6],-0.305
same,glycan array binding signal (z-score),[7],-0.289
same,glycan array binding signal (z-score),[8],-0.3
same,glycan array binding signal (z-score),[9],-0.308
same,glycan array binding signal (z-score),[10],-0.306
